PubChem BioAssay AID2147 (National Center for Advancing Translational Sciences (NCATS), 2009)
Out of some 230,000 compounds screened, about 3,600 (1.6%) were called active. This list was built around the results that the source calls inconclusive (neither active nor inactive); the mix of calls is not that of the screen. Calls come from the whole dose curve; as a rule, active = well fitted inhibition curve with a large enough effect (not every such curve was filed as active); inconclusive = small, poorly fitted or top-dose-only effect, or another doubt; inactive = no such curve, though single readings can be large or run the other way. A potency beside an inconclusive call is a rough fit, not a confirmed value.

molecular target: Lysine-specific demethylase 4E (Homo sapiens) (UniProt B2RXH2); test: qHTS Assay for Inhibitors of Human Jumonji Domain Containing 2E (JMJD2E); settings: JMJD2E catalytic domain, FDH-coupled NADH fluorescence (FDH is formaldehyde dehydrogenase); series mostly up to 57.1 µM; activity change, negative = inhibition: at the top concentration
Note: nearly all actives have a fitted effect of over 50% in size.
Potency is the fitted concentration of half-maximal effect; tags give direction and shape of the fitted curve.
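Throughout, for activity change, negative = inhibition: 0% = wells with enzyme and -100% = buffer wells without enzyme.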

UniProt B2RXH2, sequence (B2RXH2 whole entry, looked up, the tested form may be a part): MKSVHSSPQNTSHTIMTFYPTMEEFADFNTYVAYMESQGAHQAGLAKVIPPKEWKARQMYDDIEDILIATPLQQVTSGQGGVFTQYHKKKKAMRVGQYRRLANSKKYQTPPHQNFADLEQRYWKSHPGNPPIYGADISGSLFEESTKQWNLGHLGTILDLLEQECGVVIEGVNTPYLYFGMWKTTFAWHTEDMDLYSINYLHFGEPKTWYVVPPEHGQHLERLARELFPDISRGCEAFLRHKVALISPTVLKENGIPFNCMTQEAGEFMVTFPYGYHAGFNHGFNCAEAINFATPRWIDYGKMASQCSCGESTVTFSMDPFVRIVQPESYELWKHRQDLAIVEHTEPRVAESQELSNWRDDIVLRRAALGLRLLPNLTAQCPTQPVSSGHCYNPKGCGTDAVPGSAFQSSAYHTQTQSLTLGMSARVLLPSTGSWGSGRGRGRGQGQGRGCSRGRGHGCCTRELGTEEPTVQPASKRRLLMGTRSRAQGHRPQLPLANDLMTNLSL

Row | Compound | activity change, negative = inhibition | Potency
1 | CCCCCC(=O)N=Nc1c(O)[nH]c2ccc([N+](=O)[O-])cc12 | inactive: 8.65% | 
2 | O=C(CN1CCN(CCO)CC1)Nc1ccccc1 | inactive: 1.78% | 
3 | N#Cc1nc(-c2cccc3ccccc23)oc1NCC1CCCO1 (stereo unspecified) |  | inconclusive: 12.6 µM [inhibitor, partial curve]
4 | Cc1ccc2[nH]c3c(=O)n(CCN4CCNCC4)cnc3c2c1 |  | inconclusive: 3.16 µM [inhibitor, partial curve]
5 | O=C(/C=C/c1ccc(Cl)cc1)Nc1ccc(S(=O)(=O)Nc2ncccn2)cc1 |  | inconclusive: 35.5 µM [inhibitor, single point]
6 | COc1ccccc1NC(=O)c1coc(=O)c(Br)c1 |  | inconclusive: 17.8 µM [inhibitor, partial curve]
7 | COc1ccc(S(=O)NC2CCCCC2)c(OC)c1C (stereo unspecified) | inactive: -11.2% | 
8 | CCCC(=O)Nc1ccc(C(=O)NNC(=S)NC(=O)c2cccs2)cc1 |  | inconclusive: 39.8 µM [inhibitor, single point]
9 | CCCn1c(SCC(=O)Nc2ccccc2Oc2ccccc2)n[nH]c1=O | inactive: -2.88% | 
10 | COc1ccc(CCn2c(N)c(C#N)c3nc4ccccc4nc32)cc1OC |  | inconclusive: 28.2 µM [inhibitor, partial curve]
11 | COc1ccc(C(=O)Nc2ccc(C)c(S(=O)(=O)N3CCCCCC3)c2)cc1 |  | inconclusive: 35.5 µM [inhibitor, single point]
12 | Cc1cc(N2CCN(C)CC2)nc2ccc(NC(=O)c3ccc4c(c3)OCO4)cc12 |  | inconclusive: 39.8 µM [inhibitor, single point]
13 | Cn1c(C(=O)N2CCCC(C(=O)NCc3cccs3)C2)cc2sccc21 (stereo unspecified) |  | inconclusive: 35.5 µM [inhibitor, single point]
14 | Cc1cc(C)n2cc(CSc3ccccn3)nc2n1 |  | inconclusive: 28.2 µM [inhibitor, partial curve]
15 | COCCNC(=O)CN1c2ccccc2CC1C (stereo unspecified) |  | inconclusive: 0.0282 µM [inhibitor, full curve, poor fit]
16 | Cc1onc(-c2c(F)cccc2Cl)c1C(=O)OCC(=O)c1c(N)n(C)c(=O)n(C)c1=O | inactive: 6.61% | 
17 | COC(=O)Nc1ccc(Cc2ccncc2)cc1 | inactive: -3.16% | 
18 | Oc1c(C=Nc2ccc(Cl)cn2)sc2ccccc12 |  | inconclusive: 39.8 µM [inhibitor, single point]
19 | CC(=O)n1cc([C@@H]2C=C(C(=O)NCc3ccccc3)O[C@H](OCCCCO)C2)c2ccccc21 |  | active: 15.8 µM
20 | Nc1c(S(=O)(=O)c2ccccc2)c2nc3ccccc3nc2n1C1CC1 |  | inconclusive: 28.2 µM [inhibitor, partial curve]
21 | CCCOc1ccc(N2C(=O)CC(NCCc3ccc(S(N)(=O)=O)cc3)C2=O)cc1 (stereo unspecified) | inactive: 2.73% | 
22 | O=C(Oc1ccc2ccc(=O)oc2c1)C1CCCCC1 |  | inconclusive: 25.1 µM [inhibitor, partial curve]
23 | Cc1ccc(OCCn2c(NC(=O)c3ccco3)nc3ccccc32)cc1 |  | inconclusive: 28.2 µM [inhibitor, single point]
24 | COc1ccccc1N1CCN(Cc2ccc(Br)o2)CC1 | inactive: 3.13% | 

Row | Compound | activity change, negative = inhibition | Potency
25 | Cc1nc(-c2cccc(S(=O)(=O)N3CCC(C)CC3)c2)cs1 |  | inconclusive: 35.5 µM [inhibitor, single point]
26 | COc1ccc(C(=O)c2oc3ccccc3c2NC(C)=O)cc1 |  | inconclusive: 28.2 µM [inhibitor, single point]
27 | CCOc1ccc2cc(C#N)c(SCC(=O)NC(C)CC)nc2c1 (stereo unspecified) | inactive: -28.7% | 
28 | C=CCSc1nnc(-c2sc(-c3ccccc3)nc2C)n1C |  | inconclusive: 31.6 µM [inhibitor, partial curve]
29 | CC1C(C#N)=C(SCC(N)=O)NC2=C1C(=O)CC(C)(C)C2 (stereo unspecified) |  | inconclusive: 22.4 µM [inhibitor, partial curve]
30 | COc1cccc(NC(=O)CN(C)C(=O)/C=C/c2cc(OC)ccc2OC)c1 |  | inconclusive: 28.2 µM [inhibitor, partial curve]
31 | Cc1cc2c(cc1C)CSC(c1ccc3ccccc3c1O)SC2 |  | inconclusive: 20 µM [inhibitor, single point]
32 | CCOC(=O)c1c(-c2ccc(C)o2)csc1NC(=O)COC(=O)c1ccc(NC(N)=O)cc1 |  | inconclusive: 28.2 µM [inhibitor, single point]
33 | COc1ccc(C(=O)OCC[N+]2(C)CCCCC2)cc1 | inactive: -9.15% | 
34 | O=C(O)CSc1nnc(Cc2cccc3ccccc23)n1-c1cc(C(F)(F)F)cc(C(F)(F)F)c1 | inactive: 5.11% | 
35 | CC1CCCCC12NC(=O)N(CC(=O)Nc1sc3c(c1C(N)=O)CCC3)C2=O (stereo unspecified) |  | inconclusive: 25.1 µM [inhibitor, partial curve]
36 | Cc1ccc([N+](=O)[O-])c(C(=O)N/N=C/c2cccs2)c1 | inactive: -7.42% | 
37 | O=C(Cn1c(=O)n(-c2ccccc2)c(=O)c2oc3ccccc3c21)Nc1ccccc1 |  | inconclusive: 39.8 µM [inhibitor, single point]
38 | CC1=C(C(=O)OC(C)C)C(c2ccc(C)o2)C(C(=O)OC(C)C)=C(C)N1 |  | inconclusive: 20 µM [inhibitor, partial curve]
39 | CC(=O)O[C@H]1CSC[C@H]1NC(=O)c1ccccc1 |  | inconclusive: 28.2 µM [inhibitor, single point]
40 | O=C(/C=C/c1ccc([N+](=O)[O-])cc1)N1CCN(c2ccccc2F)CC1 | inactive: 21.3% | 
41 | Cc1cc(C(=O)O)ccc1-c1ccc(/C=C2\NC(=O)N(Cc3ccc(F)cc3)C2=O)o1 |  | inconclusive: 14.1 µM [inhibitor, partial curve]
42 | O=c1cc(-c2ccc(O)c(O)c2)oc2cc(O)c(C3OC(CO)C(O)C(O)C3O)c(O)c12 (stereo unspecified) |  | active: 14.1 µM
43 | Cc1cc(=S)c2ccccc2[nH]1 | inactive: -5.65% | 
44 | Cn1c(-c2ccc(C=O)s2)nc2ccccc21 |  | inconclusive: 28.2 µM [inhibitor, partial curve]
45 | COc1ccc(/C=C2\SC(=O)N(CCNC(=O)C3CC(=O)N(c4ccccc4)C3)C2=O)cc1 (stereo unspecified) |  | inconclusive: 39.8 µM [inhibitor, single point]
46 | Cc1ccc(/C=C/C(O)=C2/C(=O)N(C)C3(C)CC2c2ccccc2O3)cc1 (stereo unspecified) |  | inconclusive: 31.6 µM [inhibitor, single point]
47 | CCCn1c(=O)c2c(C(=O)OCC)cc(-c3ccco3)nc2n(CCC)c1=O |  | inconclusive: 3.55 µM [inhibitor, partial curve]
48 | c1ccc(C2[C@H]3CN(CC4CCCCC4)[C@H](c4ccccc4)C34CC2(c2cccnc2)C4)cc1 (stereo partly specified) |  | inactive

Row | Compound | activity change, negative = inhibition | Potency
49 | CCOCCCn1c(=N)c(C(=O)NCc2ccc3c(c2)OCO3)cc2c(=O)n3ccccc3nc21 |  | inconclusive: 31.6 µM [inhibitor, single point]
50 | COc1ccc(-c2[nH]ncc2/C=C(\C#N)C(=O)NC2CC2)cc1 |  | inconclusive: 39.8 µM [inhibitor, single point]
51 | Cc1c(NC(=O)CSc2n[nH]c(=O)n2-c2ccccc2)c(=O)n(-c2ccccc2)n1C | inactive: 2.28% | 
52 | COC(=O)c1ccccc1NC(=O)c1cnn2c(C)cc(C)nc12 |  | inconclusive: 31.6 µM [inhibitor, single point]
53 | Cc1cc(C)nc(N2CCC(C(=O)NNC(=O)Cc3ccccc3)CC2)n1 |  | inconclusive: 25.1 µM [inhibitor, single point]
54 | O=c1ccc(N=Nc2ccccc2)ccc1O |  | active: 5.62 µM
55 | COc1ccc(C2Nc3ccccc3C(=O)N2NS(=O)(=O)c2ccccc2)cc1 (stereo unspecified) |  | inconclusive: 31.6 µM [inhibitor, partial curve]
56 | COc1ccccc1-n1cc(C(=O)NCC(=O)N2CCN(Cc3ccccc3)CC2)c2ccccc2c1=O |  | inconclusive: 39.8 µM [inhibitor, single point]
57 | O=c1[nH]sc2ccccc12 |  | inconclusive: 28.2 µM [inhibitor, partial curve]
58 | N#CCCSc1nc(N2CCOCC2)c2c(c1C#N)CCCC2 | inactive: -8.92% | 
59 | Cc1cc(OCc2cccc(Cl)c2)c(C)cc1CN1CCOCC1 | inactive: -2.46% | 
60 | COc1cc(OC)cc(-c2nc3ccccc3s2)c1 |  | inconclusive: 28.2 µM [inhibitor, partial curve]
61 | O=c1[nH]c2cc3c(cc2cc1CN(CCN1CCOCC1)C(=S)NCC1CCCO1)OCO3 (stereo unspecified) |  | inconclusive: 28.2 µM [inhibitor, partial curve]
62 | CN1CCN(C(=O)c2cc3nc(-c4ccc(F)cc4)cc(C(F)(F)F)n3n2)CC1 |  | inconclusive: 39.8 µM [inhibitor, single point]
63 | Cc1ccc(NC(=O)c2cc(S(=O)(=O)N3CCOCC3)c(Br)s2)cc1 | inactive: 6.82% | 
64 | CCOc1ccc2cc(C#N)c(SCC(=O)OC)nc2c1 |  | inconclusive: 28.2 µM [inhibitor, partial curve]
65 | CCC(C)NC(=O)CCNS(=O)(=O)c1ccc(Br)cc1 (stereo unspecified) | inactive: 3.12% | 
66 | O=C(/C=C/c1nc2ccccc2s1)N1CCCCCC1 |  | inconclusive: 39.8 µM [inhibitor, single point]
67 | Cc1[nH]n(-c2ccccc2)c(=O)c1/C=N/N1C(=O)c2ccc3c4c(ccc(c24)C1=O)CC3 |  | inconclusive: 22.4 µM [inhibitor, partial curve]
68 | O=C(O)CSc1nnc(-c2cc3ccccc3o2)n1-c1ccccc1 |  | inconclusive: 35.5 µM [inhibitor, single point]
69 | CC(O)c1nc2ccccc2n1CC(=O)Nc1ccc2c(c1)OCCO2 (stereo unspecified) | inactive: 9.3% | 
70 | COc1cc2c(cc1OC)CN(CC(=O)Nc1ccccc1C#N)CC2 |  | inconclusive: 28.2 µM [inhibitor, partial curve]
71 | CCCN(CC(=O)Nc1ccc(Cl)cc1Cl)C(=O)/C=C/c1cc(OC)ccc1OC |  | inconclusive: 28.2 µM [inhibitor, partial curve]
